Results from publication PMC9911399, “Two distinct binding modes provide the RNA-binding protein RbFox with extraordinary sequence specificity”.
Changes are numbered by the printed parent chain; changes in the protein carry UniProt numbers. The list shows a part of the results.

T1: RBFOX1 RRM (Homo sapiens, UniProt Q9NWB1 109-208)
T1 sequence: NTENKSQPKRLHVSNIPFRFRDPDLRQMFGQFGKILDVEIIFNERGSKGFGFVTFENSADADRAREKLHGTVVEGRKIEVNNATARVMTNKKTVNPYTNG

B1: GCCAAGU (DNA:RNA)
RNA: GGGAGACCGGAAUUCAGAUUGUCCGCCAAGUUUAAAUCCCGUCGUAGCCACCA
DNA 1: CAATCTGAATTCCGGTCTCCC
DNA 2: TGGTGGCTACGACGGGATT
B2: UCACCUA (DNA:RNA)
RNA: B1 RNA with G25U, C27A, A28C, A29C, G30U, U31A
DNA 1: CAATCTGAATTCCGGTCTCCC
DNA 2: TGGTGGCTACGACGGGATT
B3: AUAAUAA (DNA:RNA)
RNA: B1 RNA with G25A, C26U, C27A, A29U, G30A, U31A
DNA 1: CAATCTGAATTCCGGTCTCCC
DNA 2: TGGTGGCTACGACGGGATT
B4: UAAAGAC (DNA:RNA)
RNA: B1 RNA with G25U, C26A, C27A, A29G, G30A, U31C
DNA 1: CAATCTGAATTCCGGTCTCCC
DNA 2: TGGTGGCTACGACGGGATT
B5: AUUCAUA (DNA:RNA)
RNA: B1 RNA with G25A, C26U, C27U, A28C, G30U, U31A
DNA 1: CAATCTGAATTCCGGTCTCCC
DNA 2: TGGTGGCTACGACGGGATT
B6: GUAUCUC (DNA:RNA)
RNA: B1 RNA with C26U, C27A, A28U, A29C, G30U, U31C
DNA 1: CAATCTGAATTCCGGTCTCCC
DNA 2: TGGTGGCTACGACGGGATT
B7: CUAUCGA (DNA:RNA)
RNA: B1 RNA with G25C, C26U, C27A, A28U, A29C, U31A
DNA 1: CAATCTGAATTCCGGTCTCCC
DNA 2: TGGTGGCTACGACGGGATT
B8: GCGCGAA (DNA:RNA)
RNA: B1 RNA with C27G, A28C, A29G, G30A, U31A
DNA 1: CAATCTGAATTCCGGTCTCCC
DNA 2: TGGTGGCTACGACGGGATT
B9: UUGACAU (DNA:RNA)
RNA: B1 RNA with G25U, C26U, C27G, A29C, G30A
DNA 1: CAATCTGAATTCCGGTCTCCC
DNA 2: TGGTGGCTACGACGGGATT
B10: UAAAGUC (DNA:RNA)
RNA: B1 RNA with G25U, C26A, C27A, A29G, G30U, U31C
DNA 1: CAATCTGAATTCCGGTCTCCC
DNA 2: TGGTGGCTACGACGGGATT
B11: UAAACCG (DNA:RNA)
RNA: B1 RNA with G25U, C26A, C27A, A29C, G30C, U31G
DNA 1: CAATCTGAATTCCGGTCTCCC
DNA 2: TGGTGGCTACGACGGGATT
B12: AUCGGAU (DNA:RNA)
RNA: B1 RNA with G25A, C26U, A28G, A29G, G30A
DNA 1: CAATCTGAATTCCGGTCTCCC
DNA 2: TGGTGGCTACGACGGGATT
B13: UGACUAC (DNA:RNA)
RNA: GGGAGACCGGAAUUCAGAUUGUCCUGACUACUUAAAUCCCGUCGUAGCCACCA
DNA 1: CAATCTGAATTCCGGTCTCCC
DNA 2: TGGTGGCTACGACGGGATT
B14: GAUUUGC (DNA:RNA)
RNA: B1 RNA with C26A, C27U, A28U, A29U, U31C
DNA 1: CAATCTGAATTCCGGTCTCCC
DNA 2: TGGTGGCTACGACGGGATT
B15: GCAACAG (DNA:RNA)
RNA: B1 RNA with C27A, A29C, G30A, U31G
DNA 1: CAATCTGAATTCCGGTCTCCC
DNA 2: TGGTGGCTACGACGGGATT
B16: GCGCCCA (DNA:RNA)
RNA: B1 RNA with C27G, A28C, A29C, G30C, U31A
DNA 1: CAATCTGAATTCCGGTCTCCC
DNA 2: TGGTGGCTACGACGGGATT
B17: AUGUACA (DNA:RNA)
RNA: B1 RNA with G25A, C26U, C27G, A28U, G30C, U31A
DNA 1: CAATCTGAATTCCGGTCTCCC
DNA 2: TGGTGGCTACGACGGGATT
B18: CGUCCUC (DNA:RNA)
RNA: B13 RNA with U25C, A27U, U29C, A30U
DNA 1: CAATCTGAATTCCGGTCTCCC
DNA 2: TGGTGGCTACGACGGGATT
B19: GCAGCUG (DNA:RNA)
RNA: B1 RNA with C27A, A28G, A29C, G30U, U31G
DNA 1: CAATCTGAATTCCGGTCTCCC
DNA 2: TGGTGGCTACGACGGGATT
B20: UUCGUCC (DNA:RNA)
RNA: B13 RNA with G26U, A27C, C28G, A30C
DNA 1: CAATCTGAATTCCGGTCTCCC
DNA 2: TGGTGGCTACGACGGGATT
B21: CAAUAUA (DNA:RNA)
RNA: B1 RNA with G25C, C26A, C27A, A28U, G30U, U31A
DNA 1: CAATCTGAATTCCGGTCTCCC
DNA 2: TGGTGGCTACGACGGGATT
B22: CUCAUCU (DNA:RNA)
RNA: B1 RNA with G25C, C26U, A29U, G30C
DNA 1: CAATCTGAATTCCGGTCTCCC
DNA 2: TGGTGGCTACGACGGGATT
B23: ACUCUGG (DNA:RNA)
RNA: B1 RNA with G25A, C27U, A28C, A29U, U31G
DNA 1: CAATCTGAATTCCGGTCTCCC
DNA 2: TGGTGGCTACGACGGGATT
B24: CGCCUCG (DNA:RNA)
RNA: B13 RNA with U25C, A27C, A30C, C31G
DNA 1: CAATCTGAATTCCGGTCTCCC
DNA 2: TGGTGGCTACGACGGGATT
B25: CAGAAUU (DNA:RNA)
RNA: B1 RNA with G25C, C26A, C27G, G30U
DNA 1: CAATCTGAATTCCGGTCTCCC
DNA 2: TGGTGGCTACGACGGGATT
B26: UCACAAG (DNA:RNA)
RNA: B13 RNA with G26C, U29A, C31G
DNA 1: CAATCTGAATTCCGGTCTCCC
DNA 2: TGGTGGCTACGACGGGATT
B27: GGAUACG (DNA:RNA)
RNA: B1 RNA with C26G, C27A, A28U, G30C, U31G
DNA 1: CAATCTGAATTCCGGTCTCCC
DNA 2: TGGTGGCTACGACGGGATT
B28: GAUUAAA (DNA:RNA)
RNA: B1 RNA with C26A, C27U, A28U, G30A, U31A
DNA 1: CAATCTGAATTCCGGTCTCCC
DNA 2: TGGTGGCTACGACGGGATT
B29: UUGGCGG (DNA:RNA)
RNA: B1 RNA with G25U, C26U, C27G, A28G, A29C, U31G
DNA 1: CAATCTGAATTCCGGTCTCCC
DNA 2: TGGTGGCTACGACGGGATT
B30: ACAUGAA (DNA:RNA)
RNA: B13 RNA with U25A, G26C, C28U, U29G, C31A
DNA 1: CAATCTGAATTCCGGTCTCCC
DNA 2: TGGTGGCTACGACGGGATT
B31: CGGAUGG (DNA:RNA)
RNA: B1 RNA with G25C, C26G, C27G, A29U, U31G
DNA 1: CAATCTGAATTCCGGTCTCCC
DNA 2: TGGTGGCTACGACGGGATT

These binders were tested against T1, RBFOX1 RRM (assay: EMSA; HiTS-Eq, 1 nM pool, 10 min; buffer printed only for the single-RNA assays: 10 mM Tris pH 7.5, 150 mM NaCl, 3.4 mM EDTA, 0.001% NP-40, 30 C). Conditions: tags: His6 N-terminal (pET28a); label: 5' 32P.
Procedure, shortened: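 A pool of RNA with 7 randomized nucleotides, 5′-radiolabelled and with DNA-annealed flanks, was equilibrated at 1 nM for 10 min in 50 µL with purified RbFox RRM, wild type or mutant, across increasing protein concentrations. Free RNA was separated by 8% native PAGE, excised, reverse-transcribed, barcoded by PCR and sequenced. Relative association constants were obtained from read-count changes of each RNA species versus the control reaction and normalised to the cognate motif.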
For B1, the binding signal was 0.00868 KA relative to UGCAUGU. In the case of B2, the binding signal is reported as 0.00184 KA relative to UGCAUGU. For B3, the binding signal was 0.00235 KA relative to UGCAUGU. With B4 the binding signal was 0.00563 KA relative to UGCAUGU. With B5 the binding signal was 0.00174 KA relative to UGCAUGU. For B6, the binding signal was 0.0129 KA relative to UGCAUGU. With B7 the binding signal was 0.0115 KA relative to UGCAUGU. For B8, the binding signal was 0.0104 KA relative to UGCAUGU. For B9, the binding signal was 0.00701 KA relative to UGCAUGU. For B10, the binding signal was 0.00892 KA relative to UGCAUGU. For B11, the binding signal was 0.00174 KA relative to UGCAUGU. With B12 the binding signal was 0.0062 KA relative to UGCAUGU. In the case of B13, the binding signal is reported as 0.0122 KA relative to UGCAUGU. In the case of B14, the binding signal is reported as 0.0223 KA relative to UGCAUGU. With B15 the binding signal was 0.00902 KA relative to UGCAUGU. B16 was tested, and the binding signal was 0.00671 KA relative to UGCAUGU. With B17 the binding signal was 0.00695 KA relative to UGCAUGU. For B18, the binding signal was 0.00542 KA relative to UGCAUGU. B19 was tested, and the binding signal was 0.0142 KA relative to UGCAUGU. In the case of B20, the binding signal is reported as 0.00975 KA relative to UGCAUGU. In the case of B21, the binding signal is reported as 0.000945 KA relative to UGCAUGU. In the case of B22, the binding signal is reported as 0.0034 KA relative to UGCAUGU. For B23, the binding signal was 0.0156 KA relative to UGCAUGU. In the case of B24, the binding signal is reported as 0.00917 KA relative to UGCAUGU. For B25, the binding signal was 0.00225 KA relative to UGCAUGU. With B26 the binding signal was 0.00493 KA relative to UGCAUGU. In the case of B27, the binding signal is reported as 0.0133 KA relative to UGCAUGU. With B28 the binding signal was 0.00427 KA relative to UGCAUGU. In the case of B29, the binding signal is reported as 0.0247 KA relative to UGCAUGU. In the case of B30, the binding signal is reported as 0.00359 KA relative to UGCAUGU. With B31 the binding signal was 0.0169 KA relative to UGCAUGU.
